These results are taken from paper PMC11729561.

Sequences of proteins named here, by UniProt entry; tags and fusion partners are left off. A change or cut given only in a name is not applied to a line headed by its entry. A line that says so, or that is headed by a name, gives the form on record, which may keep a tag or linker. Residues count along the entry.
UniProt Q99523, residues 78-831: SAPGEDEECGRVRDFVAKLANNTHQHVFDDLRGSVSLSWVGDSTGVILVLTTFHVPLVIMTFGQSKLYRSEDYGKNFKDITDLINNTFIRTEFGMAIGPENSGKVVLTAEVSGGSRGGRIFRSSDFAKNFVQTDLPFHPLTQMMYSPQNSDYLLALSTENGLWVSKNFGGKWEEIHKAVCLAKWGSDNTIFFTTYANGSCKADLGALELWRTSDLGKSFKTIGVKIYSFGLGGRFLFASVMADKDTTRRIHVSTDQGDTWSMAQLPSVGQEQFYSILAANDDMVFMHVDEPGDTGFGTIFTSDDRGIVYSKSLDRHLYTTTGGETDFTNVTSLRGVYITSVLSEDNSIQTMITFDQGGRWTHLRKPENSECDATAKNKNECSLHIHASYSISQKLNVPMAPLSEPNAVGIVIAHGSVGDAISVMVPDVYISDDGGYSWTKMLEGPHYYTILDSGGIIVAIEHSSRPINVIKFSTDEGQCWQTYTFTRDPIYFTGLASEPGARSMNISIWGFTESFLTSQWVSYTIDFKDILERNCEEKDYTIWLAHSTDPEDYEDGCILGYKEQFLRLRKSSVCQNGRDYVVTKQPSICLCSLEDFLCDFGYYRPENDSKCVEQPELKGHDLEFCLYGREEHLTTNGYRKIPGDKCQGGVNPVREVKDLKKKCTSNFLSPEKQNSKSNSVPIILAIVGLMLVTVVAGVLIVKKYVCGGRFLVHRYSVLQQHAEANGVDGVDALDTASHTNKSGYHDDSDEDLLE
UniProt Q6PHU5, residues 74-825: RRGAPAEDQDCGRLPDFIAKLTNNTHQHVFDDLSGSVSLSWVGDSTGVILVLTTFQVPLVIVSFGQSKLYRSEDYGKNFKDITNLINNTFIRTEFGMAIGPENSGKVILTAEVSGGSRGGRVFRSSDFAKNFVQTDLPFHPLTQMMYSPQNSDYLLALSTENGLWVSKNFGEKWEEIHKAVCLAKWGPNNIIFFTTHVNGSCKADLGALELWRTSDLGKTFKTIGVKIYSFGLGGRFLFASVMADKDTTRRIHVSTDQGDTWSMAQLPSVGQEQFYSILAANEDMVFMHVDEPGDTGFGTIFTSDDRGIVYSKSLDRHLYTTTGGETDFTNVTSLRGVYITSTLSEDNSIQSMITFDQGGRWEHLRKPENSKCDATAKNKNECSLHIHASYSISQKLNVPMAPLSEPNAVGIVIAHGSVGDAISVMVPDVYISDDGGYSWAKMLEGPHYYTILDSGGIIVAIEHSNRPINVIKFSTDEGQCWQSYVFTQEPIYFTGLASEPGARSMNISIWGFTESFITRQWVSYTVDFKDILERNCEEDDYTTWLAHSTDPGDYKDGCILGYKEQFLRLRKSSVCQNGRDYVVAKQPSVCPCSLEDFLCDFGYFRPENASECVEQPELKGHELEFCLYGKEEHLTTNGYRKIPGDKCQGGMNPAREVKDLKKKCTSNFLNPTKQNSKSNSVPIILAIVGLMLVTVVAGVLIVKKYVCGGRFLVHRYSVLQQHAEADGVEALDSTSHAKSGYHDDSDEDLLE
UniProt A0A4D6IX63: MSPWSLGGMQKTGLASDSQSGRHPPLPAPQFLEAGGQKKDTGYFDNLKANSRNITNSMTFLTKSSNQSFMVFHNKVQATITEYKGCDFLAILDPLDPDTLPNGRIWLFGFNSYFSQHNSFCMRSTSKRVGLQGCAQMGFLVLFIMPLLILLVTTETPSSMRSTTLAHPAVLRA
GST-fused RPS23RG1 extracellular fragment (RPS23RG1 aa 1-131): residues 1-131 of A0A4D6IX63
Myc-RPS23RG1-Δ57-67 (A0A4D6IX63, form named): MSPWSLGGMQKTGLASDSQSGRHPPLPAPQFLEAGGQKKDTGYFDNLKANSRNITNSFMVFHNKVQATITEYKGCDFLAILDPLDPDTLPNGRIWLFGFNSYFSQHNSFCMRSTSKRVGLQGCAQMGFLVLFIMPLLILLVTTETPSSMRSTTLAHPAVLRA
Myc-RPS23RG1-Δ103-128 (A0A4D6IX63, form named): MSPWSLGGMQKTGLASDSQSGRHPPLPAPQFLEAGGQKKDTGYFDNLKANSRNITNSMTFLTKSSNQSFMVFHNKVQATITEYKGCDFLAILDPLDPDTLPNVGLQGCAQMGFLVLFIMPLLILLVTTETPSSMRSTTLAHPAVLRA

Results are given in words; binding and its absence hold for the method and conditions named. Binding seen in cells or lysates may run through a third protein. Some entries that bind do so weakly or less than the wild type. For part of these data: Tags and fused reporters may be left off the sequences shown.

Assay [1] concerns the target T1, MDGA2-GFP (full-length human MDGA2 in pEGFP-N1) (human) (UniProt Q7Z553).
T1 sequence: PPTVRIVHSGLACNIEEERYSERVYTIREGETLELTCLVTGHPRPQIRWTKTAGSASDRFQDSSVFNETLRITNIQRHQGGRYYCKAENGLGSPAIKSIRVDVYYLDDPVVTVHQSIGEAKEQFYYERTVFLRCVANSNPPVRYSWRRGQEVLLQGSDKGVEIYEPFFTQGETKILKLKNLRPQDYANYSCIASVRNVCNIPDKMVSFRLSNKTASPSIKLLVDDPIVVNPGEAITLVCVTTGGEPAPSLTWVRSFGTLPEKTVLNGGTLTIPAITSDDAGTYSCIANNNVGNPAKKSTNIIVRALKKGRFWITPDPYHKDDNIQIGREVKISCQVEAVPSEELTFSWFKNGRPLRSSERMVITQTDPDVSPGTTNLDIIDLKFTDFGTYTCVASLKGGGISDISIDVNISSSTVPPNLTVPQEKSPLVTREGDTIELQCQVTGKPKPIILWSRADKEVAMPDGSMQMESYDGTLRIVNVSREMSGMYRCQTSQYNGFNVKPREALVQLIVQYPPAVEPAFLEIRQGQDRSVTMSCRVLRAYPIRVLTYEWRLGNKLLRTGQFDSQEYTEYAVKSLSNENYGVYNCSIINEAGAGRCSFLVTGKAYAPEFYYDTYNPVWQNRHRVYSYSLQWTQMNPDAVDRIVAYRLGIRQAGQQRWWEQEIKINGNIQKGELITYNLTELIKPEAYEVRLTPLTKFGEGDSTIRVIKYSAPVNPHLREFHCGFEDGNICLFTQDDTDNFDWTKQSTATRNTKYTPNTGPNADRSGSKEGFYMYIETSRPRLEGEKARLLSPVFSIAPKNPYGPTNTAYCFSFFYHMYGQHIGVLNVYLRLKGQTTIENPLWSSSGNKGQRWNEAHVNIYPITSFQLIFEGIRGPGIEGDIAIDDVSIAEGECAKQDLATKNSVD
In words: co-IP; exogenous MDGA2 and endogenous SORT1 (Figure S4A); cells and antibody not given.

Assay [2] concerns the target T1, MDGA2-GFP (full-length human MDGA2 in pEGFP-N1) (human). As to the kind of experiment: co-IP; HEK293T cells co-transfected with MDGA2-GFP and Myc-tagged RPS23RG1 constructs; IP with IgG and antibodies against GFP or Myc; immunoblotting.
In assay [3] the target is T2, MDGA2 (endogenous, mouse brain) (mouse (endogenous in mouse brain)) (UniProt P60755).
T2 sequence: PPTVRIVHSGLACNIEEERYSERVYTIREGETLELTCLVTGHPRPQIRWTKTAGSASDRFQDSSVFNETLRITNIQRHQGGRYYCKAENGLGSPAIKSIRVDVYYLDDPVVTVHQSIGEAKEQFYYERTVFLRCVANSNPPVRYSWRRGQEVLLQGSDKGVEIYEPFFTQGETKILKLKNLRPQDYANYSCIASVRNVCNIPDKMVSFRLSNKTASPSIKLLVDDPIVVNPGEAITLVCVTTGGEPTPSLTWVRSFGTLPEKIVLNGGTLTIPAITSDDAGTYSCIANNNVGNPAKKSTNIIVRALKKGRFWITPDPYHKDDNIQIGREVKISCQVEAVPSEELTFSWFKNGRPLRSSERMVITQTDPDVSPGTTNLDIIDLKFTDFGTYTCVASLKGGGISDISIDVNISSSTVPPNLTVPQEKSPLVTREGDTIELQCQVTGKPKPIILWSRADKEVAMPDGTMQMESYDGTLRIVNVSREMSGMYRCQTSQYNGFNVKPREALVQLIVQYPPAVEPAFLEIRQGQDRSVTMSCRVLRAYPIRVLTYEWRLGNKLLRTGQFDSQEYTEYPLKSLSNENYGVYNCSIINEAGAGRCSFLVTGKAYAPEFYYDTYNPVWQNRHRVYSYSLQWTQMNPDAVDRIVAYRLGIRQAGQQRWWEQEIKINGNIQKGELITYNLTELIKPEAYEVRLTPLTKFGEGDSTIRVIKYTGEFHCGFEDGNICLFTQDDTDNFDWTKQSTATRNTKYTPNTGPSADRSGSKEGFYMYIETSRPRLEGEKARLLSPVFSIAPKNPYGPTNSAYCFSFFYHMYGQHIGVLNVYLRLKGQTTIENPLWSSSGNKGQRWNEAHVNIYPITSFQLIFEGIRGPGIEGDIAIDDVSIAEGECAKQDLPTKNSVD
In words: co-IP; protein lysates from 1.5-month-old WT (and Rps23rg1 KO) mouse brain; IP with IgG and antibodies against SORT1 or MDGA2; immunoblotting. For orientation: A western blot detects proteins with antibodies after separation by electrophoresis.

For assay [4], the target named is SORT1 (endogenous, HEK293T cells) (human (endogenous in HEK293T)) (UniProt Q99523). As to the kind of experiment: co-IP; HEK293T cells co-transfected with MDGA2-GFP and Myc-tagged full-length RR1 or Δ103-128; IP with antibodies against GFP or SORT1; immunoblotting.
Assay [5] addresses Myc-RPS23RG1 (full-length human RPS23RG1) (human). As to the kind of experiment: co-IP; HEK293T cells co-transfected with MDGA2-GFP and Myc-tagged RPS23RG1 constructs; IP with IgG and antibodies against GFP or Myc; immunoblotting.
The target in assay [6] is T3, P1 peptide, biotin-labeled (RPS23RG1 aa 103-109) (human).
T3 sequence (peptide, biotin at the amino terminus, bridged with a GGG linker): GGGGRIWLFG
In words: pull-down; HeLa cells incubated with biotin-labeled P1 or P2 peptide (100 nM) for 16 h; cell lysates incubated with avidin beads; immunoblot for MDGA2; only the target purified.

In assay [7] the target is T4, P2 peptide, biotin-labeled (RPS23RG1 aa 112-126) (human).
T4 sequence (peptide, biotin at the amino terminus, bridged with a GGG linker): GGGSYFSQHNSFCMRSTS
The description is as above.

For assay [8] the target is unchanged. In words: pull-down; biotin-labeled peptides injected intravenously in mice for 5 days (10 mg/kg/d); brain lysates precipitated with avidin beads; immunoblot for MDGA2; only the target purified.
Assay [9] addresses GST-fused RPS23RG1 extracellular fragment (RPS23RG1 aa 1-131) (human). In words: pull-down; GST-RR1-ED incubated with synaptosome lysates, pull-down with glutathione Sepharose 4B, SDS-PAGE and immunoblotting; only the target purified.
Assay [10] addresses SORT1 (endogenous, mouse brain) (mouse (endogenous in mouse brain)) (UniProt Q6PHU5). As to the kind of experiment: co-IP; protein lysates from 1.5-month-old WT (and Rps23rg1 KO) mouse brain; IP with IgG and antibodies against SORT1 or MDGA2; immunoblotting.

Take “SORT1 (endogenous, HEK293T cells) (from UniProt Q99523 78-831)”: the binding result in assay [1] is recorded as “binds”.
Turning to “Myc-RPS23RG1-Δ57-67 (from UniProt A0A4D6IX63 1-173)”, the binding result in assay [2] is “binds”.
Turning to “SORT1 (endogenous, mouse brain) (from UniProt Q6PHU5 74-825)”, the binding result in [3] was “binds”.
Take “Myc-RPS23RG1 (full-length human RPS23RG1) (from UniProt A0A4D6IX63 1-173)”: the binding entry in assay [2] is reported as “binds”.
On to “Myc-RPS23RG1-Δ103-128 (from UniProt A0A4D6IX63 1-173)”, for which, in assay [2], the binding result is recorded as “no binding”.

B1: MDGA2-GFP (full-length human MDGA2 in pEGFP-N1) (protein, UniProt Q7Z553 26-931)
chain: T1 sequence
In the case of B1, the binding result in assay [4] and in [5] was “binds” throughout.

B2: MDGA2 (endogenous, HeLa cells) (protein, UniProt Q7Z553 26-931)
chain: T1 sequence
For the molecule B2, the figures for the binding result in [6] and in [7] were “no binding (tested: 100 nM)” and “binds”, respectively.

B3: MDGA2 (endogenous, mouse brain) (protein, UniProt P60755 26-924)
chain: T2 sequence
On to B3, for which the binding result in assay [8], in [9] and in assay [10] was “binds” in each case.
